# Experimental data from PubChem BioAssay (NCATS).
# Inconclusive results, whose numbers are uncertain, are shown with a selection of clear calls. For some assays here: Potencies of inconclusive entries are left out as doubtful fits. The source made the active and inactive calls. Unless noted, calls follow the shape of the dose curve; as a rule, active = well fitted curve in the direction sought with a large enough effect; inconclusive = small, poorly fitted or top-dose-only effect, or another doubt; inactive = no such curve, though single readings can be large; an effect the other way counts as inactive or inconclusive.
# Experiments:
# [1] = system: Zika virus NS2B-NS3 protease (linked construct); assay: Primary screen NINDS Rhodamine qHTS for Zika virus inhibitors (AID 1347160); also: nearly all actives have a fitted effect of over 55% in size; also: potency is read from the fitted curve at half-maximal effect
# Summary of the method: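 Percent inhibition, normalized to uninhibited and enzyme-free controls, is fitted to a 4-parameter Hill equation. Fluorescence change comes from a 15-min cleavage of 1.5 microM bis-peptide Rhodamine110 substrate by 25 nM linked NS2B-NS3 at room temperature.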
# [2] = qHTS to identify inhibitors of the type 1 interferon - major histocompatibility complex class I in skeletal muscle: primary screen against the NCATS Mechanism Interrogation Plate v5.0 (MIPE) Libary (AID 1347411); conditions: iHSKM cells + IFN-b, HiBiT-tagged MHC-I luminescence, 24 h; activity change, negative = inhibition: at 45.8 µM (top of the series) unless noted;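 also: plate controls were vehicle for no effect and reference inhibitor for full effect; nearly all actives have a fitted effect of over 65% in size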
# Summary of the method: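 Immortalized human C25cl48 myoblasts with HiBit knocked into endogenous HLA-B*08:01 were stimulated with 4.0 ng/ml IFN-beta and exposed to compounds (11-point 1:3 titration, top 46 uM final) for 24 hrs at 37 C; HiBiT lytic luminescence measured.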
# [3] = Primary qHTS for inhibitors of nuclear receptor binding SET domain protein 2 (NSD2) in an isogenic RCH-ACV NSD2 p.E1099K mutant (9B) (AID 1645876); conditions: activity change, negative = viability loss: at 44.9 µM (top of the series) unless noted; also: nearly all actives have a fitted effect of over 70% in size; also: potency is read from the fitted curve at half-maximal effect
# [4] = Primary qHTS for inhibitors of nuclear receptor binding SET domain protein 2 (NSD2) in an RCH-ACV wild type WT cells (2C) (AID 1645877); conditions: activity change, negative = cell killing: at 44.9 µM (top of the series) unless noted; also: potency is read from the fitted curve at half-maximal effect; nearly all actives have a fitted effect of over 70% in size
# [5] = Primary fluorescence-based thiol-reactive (MSTI) qHTS assay for identification of artifact compounds. (AID 1845221);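 also: potency is read from the fitted curve at half-maximal effect; thiol-reactive compounds lower the probe fluorescence signal; nearly all actives have a fitted effect of over 65% in size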
# Summary of the method: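 qHTS titration of compound; 4 uM MSTI, PBS pH 7.4, 2% DMSO; 1 h RT, dark; fluorescence 525/598 nm; normalized to Acetyl-MSTI and MSTI; 4-parameter Hill fit.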
# [6] = system: CAOV3; assay: Primary qHTS to identify gynecologic anti-cancer compounds using libraries of approved drugs and bioactive compounds (AID 1345084); conditions: Gynecologic cancer cell panel viability, ATPlite luminescence, 48 h; series mostly up to 57.5 µM; also: nearly all actives have a fitted effect of over 55% in size; also: potency is read from the fitted curve at half-maximal effect; as to activity change, negative = cytotoxicity: % is scaled to controls: 0 for no effect and ±100 for the full control effect
# Summary of the method: (§1)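 Cells, 1,000 per well, were allowed to settle for 16 h at 37 C before compound addition. Five concentrations were tested for 48 h, and viability was read by ATPlite luminescence after 15 min at room temperature.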
# [7] = system: OV90; assay: as above; conditions: Gynecologic cancer cell panel viability, ATPlite luminescence, 48 h; series mostly up to 57.5 µM
# Summary of the method: as §1
# [8] = system: Tov-21-G; assay: as above; conditions: Gynecologic cancer cell panel viability, ATPlite luminescence, 48 h; series mostly up to 57.5 µM
# Summary of the method: as §1
# [9] = system: Zika virus NS2B-NS3 protease (unlinked complex); assay: Primary screen GU Rhodamine qHTS for Zika virus inhibitors: Unlinked NS2B-NS3 protease assay (AID 1347159); conditions: Recombinant ZIKV NS2B-NS3 protease, Rhodamine110 substrate fluorescence; activity change, negative = inhibition: at 107 µM (top of the series); also: nearly all actives have a fitted effect of over 60% in size; also: potency is read from the fitted curve at half-maximal effect
# Summary of the method: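 Compounds, tested up to 114 microM, were incubated for 15 minutes with 25 nM unlinked NS2B-NS3 protease at pH 8.0. Cleavage of 1.5 microM Rhodamine110 substrate was then followed by fluorescence for 15 minutes.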
# [10] = target: Phospholipid hydroperoxide glutathione peroxidase GPX4 (Homo sapiens) (UniProt P36969); assay: Primary qHTS Assay for Inhibitors of Recombinant Selenoprotein Glutathione Peroxidase 4 (GPX4) (AID 1845192); conditions: activity change, negative = inhibition: at 50 µM (top of the series) unless noted; also: % is scaled to controls: 0 for no effect and ±100 for the full control effect; nearly all actives have a fitted effect of over 65% in size
# Sequence of UniProt P36969 (P36969 whole entry, looked up): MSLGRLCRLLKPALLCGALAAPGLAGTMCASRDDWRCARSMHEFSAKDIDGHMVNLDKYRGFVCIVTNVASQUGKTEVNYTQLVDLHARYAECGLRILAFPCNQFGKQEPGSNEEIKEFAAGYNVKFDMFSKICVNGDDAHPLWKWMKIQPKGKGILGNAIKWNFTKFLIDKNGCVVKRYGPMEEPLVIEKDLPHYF
# Summary of the method: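 NADPH consumption, followed by fluorescence at 340/450 nm between 0 and 15 min, reports GPX4 activity via coupled glutathione reductase (100 nM). Enzyme 200 nM was pre-exposed to compound 30 min; 0.5 mM cumene hydroperoxide and 1 mM GSH served as substrates.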
# [11] = system: Hek293T; assay: Primary qHTS to identify gynecologic anti-cancer compounds using libraries of approved drugs and bioactive compounds (AID 1345084); conditions: Gynecologic cancer cell panel viability, ATPlite luminescence, 48 h, control line for the selectivity index; series mostly up to 57.5 µM; also: nearly all actives have a fitted effect of over 55% in size; also: potency is read from the fitted curve at half-maximal effect; as to activity change, negative = cytotoxicity: % is scaled to controls: 0 for no effect and ±100 for the full control effect
# Summary of the method: as §1
# [12] = P-glycoprotein substrates identified in KB-8-5-11 adenocarcinoma cell line, qHTS therapeutic library screen (AID 1346987); conditions: activity change, negative = cytotoxicity: at 44.5 µM (top of the series); also: % is scaled to controls: 0 for no effect and ±100 for the full control effect; nearly all actives have a fitted effect of over 65% in size
# Summary of the method: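 KB-8-5-11: colchicine-selected sub-line of KB-3-1 over-expressing P-gp; assay medium lacked colchicine. 72 h drug exposure at 37 degree C, CellTiter-Glo.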
# [13] = target: Cytochrome P450 2D6 (Homo sapiens) (UniProt P10635); assay: Cytochrome P450 family 2 subfamily D member 6 (CYP2D6) small molecule antagonists: luciferase biochemical (cell-free) qHTS assay (AID 1645840; active = well fitted curve in the direction sought with a large enough effect in the repeat runs; inconclusive = weak or mixed curves; inactive = no such curve, though single readings can be large; an effect the other way counts as inactive or inconclusive)
# Sequence of UniProt P10635 (P10635 whole entry, looked up): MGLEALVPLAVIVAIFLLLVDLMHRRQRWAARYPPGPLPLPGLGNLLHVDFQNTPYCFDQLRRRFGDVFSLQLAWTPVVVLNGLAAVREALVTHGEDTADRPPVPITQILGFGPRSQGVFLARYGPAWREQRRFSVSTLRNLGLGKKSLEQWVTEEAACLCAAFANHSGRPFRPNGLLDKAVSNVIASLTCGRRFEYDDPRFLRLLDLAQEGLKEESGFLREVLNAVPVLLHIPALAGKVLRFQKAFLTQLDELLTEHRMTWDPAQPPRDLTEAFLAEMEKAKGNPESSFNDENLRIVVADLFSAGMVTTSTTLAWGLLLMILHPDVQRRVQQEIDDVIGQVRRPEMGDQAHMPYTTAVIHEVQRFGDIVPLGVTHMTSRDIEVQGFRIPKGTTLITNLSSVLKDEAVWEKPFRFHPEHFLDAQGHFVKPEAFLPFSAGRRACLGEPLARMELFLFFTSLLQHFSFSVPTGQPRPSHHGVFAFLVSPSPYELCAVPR
# Summary of the method: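 P450-Glo luminescent screen: recombinant CYP2D6 enzyme–proluciferin substrate mix preincubated with compound 10 min at room temperature, then NADPH regeneration added for 1 h at room temperature. Detection reagent added for 20 min; luciferin light read as relative luminescence units.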
# [14] = system: JEG-3; assay: Primary qHTS to identify gynecologic anti-cancer compounds using libraries of approved drugs and bioactive compounds (AID 1345084); conditions: Gynecologic cancer cell panel viability, ATPlite luminescence, 48 h; series mostly up to 57.5 µM; also: nearly all actives have a fitted effect of over 55% in size; also: potency is read from the fitted curve at half-maximal effect; as to activity change, negative = cytotoxicity: % is scaled to controls: 0 for no effect and ±100 for the full control effect
# Summary of the method: as §1
# [15] = system: PA-1; assay: as above; conditions: Gynecologic cancer cell panel viability, ATPlite luminescence, 48 h; series mostly up to 57.5 µM
# Summary of the method: as §1
# [16] = NCATS anti-infectives library activity on HEK293 viability as a counter-qHTS vs the C. elegans viability qHTS (AID 1745854); also: potency is read from the fitted curve at half-maximal effect
# Summary of the method: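 HEK293 cells, 1500 per well, exposed 24 hr at 37C in 5% CO2 to compounds in a 1:5 titration, up to 41.7 uM final. Viability read as CellTiter-Glo luminescence after 10 min at room temperature.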
# [17] = system: SKOV3; assay: Primary qHTS to identify gynecologic anti-cancer compounds using libraries of approved drugs and bioactive compounds (AID 1345084); conditions: Gynecologic cancer cell panel viability, ATPlite luminescence, 48 h; series mostly up to 57.5 µM; also: nearly all actives have a fitted effect of over 55% in size; also: potency is read from the fitted curve at half-maximal effect; as to activity change, negative = cytotoxicity: % is scaled to controls: 0 for no effect and ±100 for the full control effect
# Summary of the method: as §1
# [18] = system: Zika virus NS2B-NS3 protease (unlinked complex); assay: Confirmatory screen GU AMC qHTS for Zika virus inhibitors (AID 1347153); also: potency is read from the fitted curve at half-maximal effect; nearly all actives have a fitted effect of over 70% in size
# Summary of the method: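 Unlinked enzyme 25 nM, Tris pH 8.0/0.01% Tween 20; cpd 15 min RT, dark; + AMC substrate 10 µM (Km 18.3 µM); 340/450 nm read at t0 and 15 min; % inhibition → 4-param fit.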
# [19] = ZIKV-mCherry secondary qHTS for Zika virus inhibitors (AID 1347158); also: potency is read from the fitted curve at half-maximal effect
# Summary of the method: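 Vero cells, 5,000/well, plated overnight at 37 °C, then compound added and infected with recombinant ZIKV-mCherry at MOI 1 for 48-72 h. PFA-fixed, Hoechst nuclear stain, high-content imaging; cells with mCherry intensity above 450 RFU scored infected, reported as percent infection.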
# [20] = system: Zika virus NS2B-NS3 protease (linked construct); assay: 384 well plate NINDS Rhodamine confirmatory qHTS for Zika virus inhibitors (AID 1347164)
# Summary of the method: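 Cleavage of Ac-LKRR-Rhodamine 110 (10 microM final) by linked protease (final 5, 30 or 60 nM) was followed as fluorescence at 485/538 nm after 25 min, room temperature, dark. Compounds preincubated ~15 min.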
# [21] = target: Cytochrome P450 2C9 (Homo sapiens) (UniProt P11712); assay: Cytochrome P450 family 2 subfamily C member 9 (CYP2C9) small molecule antagonists: luciferase biochemical (cell-free) qHTS assay (AID 1645842; active = well fitted curve in the direction sought with a large enough effect in the repeat runs; inconclusive = weak or mixed curves; inactive = no such curve, though single readings can be large; an effect the other way counts as inactive or inconclusive)
# Sequence of UniProt P11712 (P11712 whole entry, looked up): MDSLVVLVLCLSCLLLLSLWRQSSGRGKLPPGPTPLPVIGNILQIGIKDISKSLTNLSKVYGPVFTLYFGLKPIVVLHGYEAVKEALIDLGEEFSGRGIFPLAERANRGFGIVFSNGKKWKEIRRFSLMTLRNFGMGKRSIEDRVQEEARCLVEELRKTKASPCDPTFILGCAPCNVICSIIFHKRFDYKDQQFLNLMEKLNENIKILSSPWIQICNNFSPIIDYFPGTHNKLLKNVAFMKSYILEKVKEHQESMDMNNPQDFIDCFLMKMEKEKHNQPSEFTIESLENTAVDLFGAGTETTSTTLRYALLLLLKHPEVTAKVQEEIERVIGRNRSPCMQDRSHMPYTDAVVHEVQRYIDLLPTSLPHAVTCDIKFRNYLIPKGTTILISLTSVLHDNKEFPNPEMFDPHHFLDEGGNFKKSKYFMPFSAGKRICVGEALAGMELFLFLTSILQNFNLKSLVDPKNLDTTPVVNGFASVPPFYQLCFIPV
# Summary of the method: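 Luminescence, after 20 min with luciferin detection reagent, reflected CYP2C9 turnover during a 1 h NADPH-driven reaction at 37C. Enzyme-substrate mix contained 0.4% bovine serum albumin and was preincubated with compound 10 min at room temperature.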
# [22] = target: Luciferin 4-monooxygenase (Photinus pyralis) (UniProt P08659); assay: Primary firefly luciferase (FLuc) qHTS assay for identification of artifact compounds. (AID 1845220); also: nearly all actives have a fitted effect of over 60% in size; also: potency is read from the fitted curve at half-maximal effect;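 as to activity change, negative = inhibition: plate controls were DMSO vehicle for no effect and no enzyme for full effect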
# Summary of the method: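 FLuc 10 nM; luciferin 10 uM; ATP 10 uM; Tris-acetate pH 7.6, Mg-acetate 10 mM; 15 min RT preincubation; 5 min reaction; luminescence.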
# [23] = system: Nanoluciferase (engineered Oplophorus gracilirostris luciferase); assay: Primary Nanoluciferase (NLuc) qHTS assay for identification of artifact compounds. (AID 1845222);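 also: NLuc secreted into diluted conditioned medium of S16 cells; potency is read from the fitted curve at half-maximal effect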
# Summary of the method: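 NLuc from S16 cell medium (1:55) plus test compounds, 15 min, room temperature. Luminescence after Nano-Glo (1:100) addition, 5 min.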
# Tags tell the direction and shape of the fitted curve.
smiles,measurement,setting,value
COCCCc1sc(-c2ccccc2)nc1C(=O)Nc1ccccc1-c1nc2cc(CN3CCCC3)cnc2s1,Potency,[1],inactive
same,Potency,[2],inactive
same,Potency,[3],"inconclusive [inhibitor, single point]"
same,Potency,[4],"inconclusive [inhibitor, single point]"
same,Potency,[5],"inconclusive [inhibitor, single point]"
same,Potency,[6],inactive
same,Potency,[7],inactive
same,Potency,[8],inactive
C[C@@H]1C(=O)O[C@H]2[C@H]1CC[C@@]1(C)C(=O)C=C[C@](C)(O)[C@H]21,Potency,[9],"inconclusive [inhibitor, partial curve]"
same,Potency,[1],"inconclusive [inhibitor, partial curve]"
same,Potency,[10],inactive
same,Potency,[6],inactive
same,Potency,[11],inactive
COc1cc2c(cc1OC)CN(C(=O)[C@@H](NCc1ccncc1)C(C)(C)C)CC2,Potency,[12],inactive
same,Potency,[13],"inconclusive [inhibitor, single point]"
same,Potency,[6],inactive
same,Potency,[14],inactive
same,Potency,[15],inactive
CC(C)(O)C1CCC2(C)CCCC(C)(O)C2C1 (configuration not stated),Potency,[6],"inconclusive [cytotoxic, single point]"
same,Potency,[7],inactive
CC1(C)CC(NC(=O)C(=O)Nc2ccc(Cl)cc2)CC(C)(C)N1,Potency,[1],inactive
same,Potency,[3],inactive
same,Potency,[16],"inconclusive [cytotoxic, partial curve, poor fit]"
same,Potency,[6],inactive
same,Potency,[7],inactive
same,Potency,[17],"inconclusive [rising, single point]"
O=C(O)C1(c2ccc(-c3ccc(Cl)c(Cl)c3)c(F)c2)CC1,Potency,[18],active: 44.1 µM
same,Potency,[19],"inconclusive [inhibitor, single point]"
same,Potency,[9],active: 7.94 µM
same,Potency,[1],active: 8.91 µM
same,Potency,[20],"inconclusive [inhibitor, full curve, poor fit]"
same,Potency,[13],"inconclusive [inhibitor, single point]"
same,Potency,[21],"inconclusive [inhibitor, single point]"
same,Potency,[22],"inconclusive [inhibitor, single point]"
same,Potency,[23],active: 16.9 µM
same,Potency,[6],"inconclusive [rising, single point]"
same,Potency,[7],inactive
same,Potency,[17],inactive
C=C[C@]1(C)C[C@H](O)[C@@H]2[C@H](OC(=O)[C@@H]2C)C1/C(C)=C/O[C@@H]1O[C@H](CO)[C@@H](O)[C@H](O)[C@H]1O (some centres not stated),Potency,[6],"inconclusive [rising, partial curve]"
same,Potency,[15],"inconclusive [cytotoxic, partial curve, poor fit]"
CCC(C)C(=O)OC[C@H]1O[C@H](O[C@H]2O[C@H](CO)[C@@H](O)[C@H](O)[C@H]2O)[C@H](O)[C@@H](O)[C@@H]1O (some centres not stated),Potency,[9],inactive
same,Potency,[22],inactive
same,Potency,[6],inactive
same,Potency,[7],inactive
CC(=O)O[C@@H]1[C@H](O[C@@H]2OC[C@](O)(CO)[C@H]2O)[C@@H](O[C@@H]2O[C@@H](C)[C@H](O)[C@@H](O)[C@H]2O)[C@H](OC(=O)[C@]23CCC(C)(C)C[C@H]2C2=CCC4[C@@]5(C)C[C@H](O)[C@H](O[C@@H]6O[C@H](C(=O)O)[C@@H](O)[C@H](O)[C@H]6O)[C@@](C)(C(=O)O)C5CC[C@@]4(C)[C@]2(C)CC3)O[C@@H]1C (some centres not stated),Potency,[6],"inconclusive [rising, single point]"
same,"activity change, negative = cytotoxicity",[15],inactive: -6.11% [at 11.6 µM]
same,Potency,[17],"inconclusive [rising, single point]"
